{
  "source": "paper PMC4336329",
  "about": "(PLoS ONE, 2015)",
  "note": "Out of some 310,000 compounds screened, about 14,000 (4.5%) showed an effect of 50% or more. The effect is printed as a negative number. The list shows a part of the results.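 Also: peak tail current of the secondary pulse compared with the same well before compound.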",
  "data": [
    {"target": "human ether-à-go-go-related gene (hERG) potassium channel (human, UniProt Q12809)", "sequence (Q12809 whole entry, looked up)": "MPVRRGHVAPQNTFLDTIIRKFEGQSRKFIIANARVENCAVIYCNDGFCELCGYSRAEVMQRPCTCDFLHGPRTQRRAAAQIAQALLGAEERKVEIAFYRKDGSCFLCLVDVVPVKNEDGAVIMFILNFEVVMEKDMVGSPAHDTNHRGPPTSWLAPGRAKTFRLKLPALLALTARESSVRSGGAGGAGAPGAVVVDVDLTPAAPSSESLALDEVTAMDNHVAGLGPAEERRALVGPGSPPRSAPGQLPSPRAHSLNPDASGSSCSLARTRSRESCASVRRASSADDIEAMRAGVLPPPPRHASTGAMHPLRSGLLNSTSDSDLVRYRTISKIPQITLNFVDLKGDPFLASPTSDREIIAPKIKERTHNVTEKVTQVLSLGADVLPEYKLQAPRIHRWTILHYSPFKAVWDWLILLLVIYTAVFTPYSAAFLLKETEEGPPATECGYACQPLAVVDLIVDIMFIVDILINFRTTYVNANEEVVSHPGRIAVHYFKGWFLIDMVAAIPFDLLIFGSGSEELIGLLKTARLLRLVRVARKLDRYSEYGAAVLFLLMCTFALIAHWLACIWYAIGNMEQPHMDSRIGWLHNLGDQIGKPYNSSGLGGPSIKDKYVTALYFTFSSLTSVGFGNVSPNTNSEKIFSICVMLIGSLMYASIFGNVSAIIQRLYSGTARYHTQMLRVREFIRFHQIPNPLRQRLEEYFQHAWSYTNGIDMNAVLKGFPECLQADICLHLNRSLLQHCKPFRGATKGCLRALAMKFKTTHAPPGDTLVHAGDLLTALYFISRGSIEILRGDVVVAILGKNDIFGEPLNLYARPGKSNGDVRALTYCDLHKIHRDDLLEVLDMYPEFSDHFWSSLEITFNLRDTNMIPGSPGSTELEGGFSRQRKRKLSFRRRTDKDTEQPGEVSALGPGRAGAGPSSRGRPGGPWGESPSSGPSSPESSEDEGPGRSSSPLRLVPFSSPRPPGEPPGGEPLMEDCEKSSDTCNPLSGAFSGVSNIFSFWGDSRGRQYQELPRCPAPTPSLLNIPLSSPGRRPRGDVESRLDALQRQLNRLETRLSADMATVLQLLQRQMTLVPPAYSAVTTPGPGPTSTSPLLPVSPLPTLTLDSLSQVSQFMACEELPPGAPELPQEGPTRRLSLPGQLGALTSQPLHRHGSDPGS", "experiment": "primary screen, population patch clamp on CHO cells stably expressing hERG", "units": {"hERG current change (%, negative = inhibition) at 10uM": "%"}, "values": [
      {"smiles": "COc1nnc(-c2ccc(N3CCCCC3)c(N)c2)c2ccccc12", "hERG current change (%, negative = inhibition) at 10uM": -13},
      {"smiles": "Cn1c(=O)c2c(nc(NCCOc3ccc(C(C)(C)C)cc3)n2C)n(C)c1=O", "hERG current change (%, negative = inhibition) at 10uM": -1.05},
      {"smiles": "NS(=O)(=O)c1ccc(CCNC(=O)COC(=O)C2CCN(c3ccc(C(F)(F)F)cn3)CC2)cc1", "hERG current change (%, negative = inhibition) at 10uM": -34.9},
      {"smiles": "CC1CCCCC1NC(=O)C1CCN(S(=O)(=O)c2ccc3c(c2)CCC(=O)N3)CC1", "note": "(stereo not shown)", "hERG current change (%, negative = inhibition) at 10uM": 6.51},
      {"smiles": "COc1ccc(-c2cn(Cc3ccc(C(N)=O)cc3)c(CCN)n2)cc1", "hERG current change (%, negative = inhibition) at 10uM": -13.9},
      {"smiles": "CC(=O)c1c(O)cc(C(C)C)n(-c2ccccc2)c1=O", "hERG current change (%, negative = inhibition) at 10uM": -3.24},
      {"smiles": "COc1ccc2c(c1O)-c1ccccc1CCN(C)C2.Cl", "hERG current change (%, negative = inhibition) at 10uM": -0.905},
      {"smiles": "Cn1nnnc1SCC(=O)N1c2ccccc2Sc2ccc(Cl)cc21", "hERG current change (%, negative = inhibition) at 10uM": -16.4},
      {"smiles": "Cn1c(-c2ccccc2)cnc1SCC(N)=O", "hERG current change (%, negative = inhibition) at 10uM": 9.16},
      {"smiles": "Cc1csc(Nc2ccccc2C(F)(F)F)n1", "hERG current change (%, negative = inhibition) at 10uM": 6.46},
      {"smiles": "Cc1nc(N/N=C/c2cccc(F)c2)cc(N2CCOCC2)n1", "hERG current change (%, negative = inhibition) at 10uM": -41.3},
      {"smiles": "Cc1cc(C)n(C(=O)CCC(=O)NCc2ccccc2)n1", "hERG current change (%, negative = inhibition) at 10uM": -0.152},
      {"smiles": "COCCNC(=O)COC(=O)c1cccnc1SC", "hERG current change (%, negative = inhibition) at 10uM": 12.8},
      {"smiles": "Cc1nc(NC(=O)C2CC2)sc1C(=O)Nc1cccc(Cl)c1", "hERG current change (%, negative = inhibition) at 10uM": 22.8},
      {"smiles": "Cc1cccc(C)c1NC(=S)N(CCN1CCCCCC1)Cc1ccco1", "hERG current change (%, negative = inhibition) at 10uM": -34.9},
      {"smiles": "C=C(C)C(C)(C#CCN1CCCC1)OC(C)=O", "note": "(stereo not shown)", "hERG current change (%, negative = inhibition) at 10uM": -6.48},
      {"smiles": "CCNc1ccc(C(=O)OCC(=O)N(Cc2ccccc2)C(C)(C)C)cc1[N+](=O)[O-]", "hERG current change (%, negative = inhibition) at 10uM": -6.04},
      {"smiles": "CN1CCN(CCC(=O)Nc2cccc(Br)c2)CC1", "hERG current change (%, negative = inhibition) at 10uM": -19},
      {"smiles": "CCOC(=O)CSC1=C(C#N)C(c2ccc(Cl)cc2)CC(=O)N1", "note": "(stereo not shown)", "hERG current change (%, negative = inhibition) at 10uM": -1.8},
      {"smiles": "COCCN1C(=O)c2cc(C(=O)Nc3cccc(F)c3)ccc2C1Nc1cccc(F)c1", "note": "(stereo not shown)", "hERG current change (%, negative = inhibition) at 10uM": 7.71},
      {"smiles": "CCC(C)(C)NC(=O)C(c1ccc(O)cc1)N(CCOC)C(=O)CCC(=O)Nc1nccs1", "note": "(stereo not shown)", "hERG current change (%, negative = inhibition) at 10uM": 13.7},
      {"smiles": "Cc1ccc(OCCOC(=O)Nc2ccccc2)cc1", "hERG current change (%, negative = inhibition) at 10uM": 22.2},
      {"smiles": "CC(=O)c1sc(NC(=O)C2=NN(c3ccccc3)C(=O)CC2)nc1C", "hERG current change (%, negative = inhibition) at 10uM": 1.66},
      {"smiles": "CCCN(CC(=O)Nc1ccccc1OC)C(=O)c1cnc(Cl)c(Cl)c1", "hERG current change (%, negative = inhibition) at 10uM": 13},
      {"smiles": "CCN(CC(O)COCc1ccc(Cl)cc1)C1CCCCC1.Cl", "note": "(stereo not shown)", "hERG current change (%, negative = inhibition) at 10uM": -22.7},
      {"smiles": "CCOc1ccc(S(=O)(=O)Nc2cccc(C(=O)NCC(c3ccco3)N3CCCC3)c2)cc1", "note": "(stereo not shown)", "hERG current change (%, negative = inhibition) at 10uM": -43.2},
      {"smiles": "Cc1cccc(SCc2noc(C(=O)NC(C)C)c2C(=O)O)c1", "hERG current change (%, negative = inhibition) at 10uM": 25.9},
      {"smiles": "CCCS(=O)(=O)N1CCCC(C(=O)NC2CCCC(C)C2C)C1", "note": "(stereo not shown)", "hERG current change (%, negative = inhibition) at 10uM": 5.1},
      {"smiles": "O=C(CSc1nc(=O)n(CCCN2CCOCC2)c2c1CCCC2)Nc1cccc(F)c1", "hERG current change (%, negative = inhibition) at 10uM": -56.2},
      {"smiles": "COc1ccccc1C1=NN(C2=NN=C(N)Cc3ncnn32)C(O)(C(F)(F)F)C1", "note": "(stereo not shown)", "hERG current change (%, negative = inhibition) at 10uM": 14.8},
      {"smiles": "Cc1cccc(C)c1OCC(=O)Nc1ccccc1C(=O)N1CCOCC1", "hERG current change (%, negative = inhibition) at 10uM": -0.32},
      {"smiles": "Nn1c(SCC(=O)N2CCOCC2)nnc1-c1ccccc1Cl", "hERG current change (%, negative = inhibition) at 10uM": 10.5},
      {"smiles": "O=C(Nc1cc([N+](=O)[O-])ccc1O)c1ccc2c(c1)C(=O)N(Cc1ccco1)C2=O", "hERG current change (%, negative = inhibition) at 10uM": 7.13},
      {"smiles": "Nc1c(C(=O)N/N=C/c2ccc(F)cc2)oc2nc(-c3ccccc3)cc(-c3ccco3)c12", "hERG current change (%, negative = inhibition) at 10uM": 22.2},
      {"smiles": "O=C(O)c1nccnc1C(=O)Nc1ccc(Oc2c(Cl)cccc2Cl)nc1", "hERG current change (%, negative = inhibition) at 10uM": -26.1},
      {"smiles": "O=C(Nc1cccc(Cl)c1)Nc1c[nH]c(=O)[nH]c1=O", "hERG current change (%, negative = inhibition) at 10uM": 15.6},
      {"smiles": "CCc1ccccc1NC(=O)C1CCN(S(C)(=O)=O)CC1", "hERG current change (%, negative = inhibition) at 10uM": 8.86},
      {"smiles": "COc1cccc(NC(=O)CCNS(=O)(=O)c2cccc3nonc23)c1", "hERG current change (%, negative = inhibition) at 10uM": 13},
      {"smiles": "CCc1ccc(OCC(=O)NCC(c2ccc(Cl)cc2)N2CCCCC2)cc1", "note": "(stereo not shown)", "hERG current change (%, negative = inhibition) at 10uM": -6.4},
      {"smiles": "O=c1[nH]n(CC2COC3(CCCCC3)O2)c(=O)c2ccccc12", "note": "(stereo not shown)", "hERG current change (%, negative = inhibition) at 10uM": -5.75},
      {"smiles": "CCOc1ccc(NC(=O)CN(C)C(=O)c2c(C)nn(-c3ccc(F)cc3)c2Cl)cc1OCC", "hERG current change (%, negative = inhibition) at 10uM": -16.7},
      {"smiles": "COc1ccc(N2CCN(C(=O)c3cc(=O)c4cc(Cl)ccc4o3)CC2)cc1", "hERG current change (%, negative = inhibition) at 10uM": -76.3},
      {"smiles": "O=C(CSc1ccc(Cl)cc1)Nc1ccccc1N1CCN(C(=O)c2ccccc2)CC1", "hERG current change (%, negative = inhibition) at 10uM": -14.9},
      {"smiles": "c1ccc(Cc2noc(CN3CCC(CN4CCOCC4)CC3)n2)cc1", "hERG current change (%, negative = inhibition) at 10uM": 4.64},
      {"smiles": "CCN(CC)S(=O)(=O)c1ccc(N2CC(C(=O)NCc3cccnc3)CC2=O)cc1", "note": "(stereo not shown)", "hERG current change (%, negative = inhibition) at 10uM": -4.81},
      {"smiles": "CN(C)/C=C/C(=O)c1cc(F)cc(C(F)(F)F)c1", "hERG current change (%, negative = inhibition) at 10uM": 11.1},
      {"smiles": "CN1CCN(S(=O)(=O)c2ccc(NC(=O)c3ccc(F)cc3)cc2)CC1", "hERG current change (%, negative = inhibition) at 10uM": -10.9},
      {"smiles": "O=c1cc(CN2CCOCC2)c2ccc(O)c(O)c2o1", "hERG current change (%, negative = inhibition) at 10uM": 10.1},
      {"smiles": "CCn1c(SCC(=O)c2ccc(OC)cc2)nnc1C(C)NC(=O)c1ccc(OC)cc1", "note": "(stereo not shown)", "hERG current change (%, negative = inhibition) at 10uM": 3.46},
      {"smiles": "CNS(=O)(=O)c1cnccc1N1CCN(c2cccc(C)c2)CC1", "hERG current change (%, negative = inhibition) at 10uM": -9.27},
      {"smiles": "Cc1occc1C(=O)Nc1cnn(CCCC(=O)O)c1", "hERG current change (%, negative = inhibition) at 10uM": 15.8},
      {"smiles": "COc1ccccc1/C=N/NC(=O)C(NC(=O)c1ccccc1)=C(C)C", "hERG current change (%, negative = inhibition) at 10uM": -9.16},
      {"smiles": "O=C1CC(NNc2ccccc2)C(=O)N1c1ccccc1", "note": "(stereo not shown)", "hERG current change (%, negative = inhibition) at 10uM": 10.3},
      {"smiles": "NC(=S)c1cc2cc(Cl)ccc2oc1=O", "hERG current change (%, negative = inhibition) at 10uM": 4.62},
      {"smiles": "CC(C)(C)OC(=O)CNC(=O)c1[nH]cnc1C(=O)NCCCCCNC(=O)OC(C)(C)C", "hERG current change (%, negative = inhibition) at 10uM": -18.4},
      {"smiles": "Cc1ccc(S(=O)(=O)N2CCCOC2)cc1", "hERG current change (%, negative = inhibition) at 10uM": -3.68},
      {"smiles": "COc1ccc(OC)c(-n2cnnn2)c1", "hERG current change (%, negative = inhibition) at 10uM": -3.68},
      {"smiles": "COc1cccc(C(=O)NC(=S)Nc2ccc(Cl)cc2C(=O)O)c1", "hERG current change (%, negative = inhibition) at 10uM": 9.65}
    ]}
  ]
}
